In patent US12077501B2, “Compounds and compositions for intracellular delivery of agents” (ModernaTX, Inc., priority 2017, dated 2024):
At least one read-out could not be matched to a standard name with certainty.

What follows are compounds tested on hEPO expression (assay: hEPO expression in CD-1 mice compared with MC3). Conditions: intravenous, 0.5 mpk, Table 7e.
Assay type: in vivo
Text: In contrast, hEPO expression in rats induced by administration of a nanoparticle composition including a compound according to one of formulae (I), (Ia1)-(Ia6), (Ib), (II), (IIa), (III), and (IIIa) was substantially […] than that measured for MC3. […] Tables 7c and 7d show additional protein expressions and clearance data from compositions with various compounds disclosed herein as compared to with MC3. Tables 7e, 7f and 7g show hEPO expression data in CD-1 mice at a dose of 0.5 mpk.

| Structure (SMILES) | Lipid/MC3 AUC |
| --- | --- |
| CCCCCCCCCN(CCCCCCCCC)CCN(CCCCCCCCC)CC(=O)N1CCC(CCOC(=O)CN(CCCCCCCCC)CCCCCCCCC)C1 (centres unmarked) [Compound 103, 2-(1-(N-(2-(Dinonylamino)ethyl)-N-nonylglycyl)pyrrolidin-3-yl)ethyl Dinonylglycinate] | 4.84 |
| CCCCCC/C=C\COC(=O)CCCN(CCCCCCCCCCCCCC)CC(=O)N1CCN(C(=O)CN(CCCCCCCCC)CCN(CCCCCCCCC)CCCCCCCCC)CC1 [Compound 118, (Z)-Non-2-en-1-yl 4-((2-(4-(N-(2-(dinonylamino)ethyl)-N-nonylglycyl)piperazin-1-yl)-2-oxoethyl)(tetradecyl)amino)butanoate] | 4.35 |
| CCCCCCCCCN(CCCCCCCCC)CCN(CCCCCCCCC)CC(=O)N1CCN(C(=O)CN(CCCCCCCCC)CCCOC(=O)CCCCC)CC1 [Compound 56, 3-((2-(4-(N-(2-(Dinonylamino)ethyl)-N-nonylglycyl)piperazin-1-yl)-2-oxoethyl)(nonyl)amino)propyl hexanoate] | 1.31 |
| CCCCCCCCCN(CCCCCCCCC)CCN(CCCCCCCCC)CC(=O)N1CCN(C(=O)CN(CCCCCCCCC)CCCCCOC(=O)OC)CC1 [Compound 109, 5-((2-(4-(N-(2-(Dinonylamino)ethyl)-N-nonylglycyl)piperazin-1-yl)-2-oxoethyl)(nonyl)amino)pentyl methyl carbonate] | 1.48 |
| CCCCCCCCCN(CCCCC(=O)OCCCC)CCC1CCN(C(=O)CN(CCCCCCCCC)CCN(CCCCCCCCC)CCCCCCCCC)CC1 [Compound 60, Butyl 5-((2-(1-(N-(2-(dinonylamino)ethyl)-N-nonylglycyl)piperidin-4-yl)ethyl)(nonyl)amino)pentanoate] | 1.40 |
| CCCCCCCCCCCCCCN(CCCCCCCC(=O)OCCCCC)CCC1CCN(C(=O)CN(CCCCCCCCC)CCN(CCCCCCCCC)CCCCCCCCC)C1 (centres unmarked) [Compound 124, Pentyl 8-((2-(1-(N-(2-(dinonylamino)ethyl)-N-nonylglycyl)pyrrolidin-3-yl)ethyl)(tetradecyl)amino)octanoate] | 0.92 |
| CCCCCCCCCN(CCCCCCCCC)CCOC(=O)C1CCC(C(=O)OCCN(CCCCCCCCC)CCN(CCCCCCCCC)CCCCCCCCC)CC1 (centres unmarked) [Compound 128, 1-(2-(Dinonylamino)ethyl) 4-(2-((2-(dinonylamino)ethyl)(nonyl)amino)ethyl) cyclohexane-1,4-dicarboxylate] | 0.01 |
| CCCCCCCCCCCCCCN(CCCCCCCCCCCC(=O)OC)CCC1CCN(C(=O)CN(CCCCCCCCC)CCN(CCCCCCCCC)CCCCCCCCC)C1 (centres unmarked) [Compound 127, Methyl 12-((2-(1-(N-(2-(dinonylamino)ethyl)-N-nonylglycyl)pyrrolidin-3-yl)ethyl)(tetradecyl)amino)dodecanoate] | 0.82 |
| CCCCCCCCCN(CCCC(=O)OCCCCC)CCN(CCCCCCCCC)CC(=O)N1CCN(C(=O)CN(CCCCCCCCC)CCCC(=O)OCCCCC)CC1 [Compound 71, Pentyl 4-(nonyl(2-(4-(N-nonyl-N-(2-(nonyl(4-oxo-4-(pentyloxy)butyl)amino)ethyl)glycyl)piperazin-1-yl)-2-oxoethyl)amino)butanoate] | 0.72 |
| CCCCCCCCCN(CCCCCCCCC)CCN(CCCCCCCCC)CC(=O)OC1CCC(OC(=O)CN(CCCCCCCCC)CCCCCCCCC)CC1 (centres unmarked) [Compound 115, 4-((N-(2-(Dinonylamino)ethyl)-N-nonylglycyl)oxy)cyclohexyl dinonylglycinate] | 0.06 |
| CCCCCCCCCN(CCCCCCCCC)CCN(CCCCCCCCC)CC(=O)N(C)CCN(C)C(=O)CN(CCCCCCCCC)CCCC(=O)OCCCCC [Compound 152, Pentyl 8,11-dimethyl-5,14,17-trinonyl-7,12-dioxo-5,8,11,14,17-pentaazahexacosanoate] | 2.57 |
| CCCCCCCCCN(CCCOC(=O)CCCCC)CCC1CCN(C(=O)CN(CCCCCCCCC)CCN(CCCCCCCCC)CCCCCCCCC)CC1 [Compound 61, 3-((2-(1-(N-(2-(Dinonylamino)ethyl)-N-nonylglycyl)piperidin-4-yl)ethyl)(nonyl)amino)propyl hexanoate] | 1.82 |
| CCCCCCCCCCCCCCN(CCCCCCCC(=O)OCCCCC)CCC1CCN(C(=O)CN(CCCCCCCCC)CCN(CCCCCCCCC)CCCCCCCCC)CC1 [Compound 93, Pentyl 8-((2-(1-(N-(2-(dinonylamino)ethyl)-N-nonylglycyl)piperidin-4-yl)ethyl)(tetradecyl)amino)octanoate] | 2.29 |
| CCCCCCCCCCCCCCN(CCCCCCCCCCCC(=O)OC)CCC1CCN(C(=O)CN(CCCCCCCCC)CCN(CCCCCCCCC)CCCCCCCCC)CC1 [Compound 116, Methyl 12-((2-(1-(N-(2-(dinonylamino)ethyl)-N-nonylglycyl)piperidin-4-yl)ethyl)(tetradecyl)amino)dodecanoate] | 2.68 |
| CCCCCCCCCCCCCCN(CCCCCCCC(=O)OCCCCC)CCC1CCCN(C(=O)CN(CCCCCCCCC)CCN(CCCCCCCCC)CCCCCCCCC)C1 (centres unmarked) [Compound 120, Pentyl 8-((2-(1-(N-(2-(dinonylamino)ethyl)-N-nonylglycyl)piperidin-3-yl)ethyl)(tetradecyl)amino)octanoate] | 0.99 |
| CCCCCCCCCCCCCCN(CCCOC(=O)CCCCCCCCC)CCC1CCN(C(=O)CN(CCCCCCCCC)CCN(CCCCCCCCC)CCCCCCCCC)CC1 [Compound 92, 3-((2-(1-(N-(2-(Dinonylamino)ethyl)-N-nonylglycyl)piperidin-4-yl)ethyl)(tetradecyl)amino)propyl decanoate] | 2.19 |
| CCCCCCCCCCCCCCN(CCCCCCCCCCCC(=O)OC)CC(=O)N1CCN(C(=O)CN(CCCCCCCCC)CCN(CCCCCCCCC)CCCCCCCCC)CC1 [Compound 117, Methyl 12-((2-(4-(N-(2-(dinonylamino)ethyl)-N-nonylglycyl)piperazin-1-yl)-2-oxoethyl)(tetradecyl)amino)dodecanoate] | 1.83 |
| CCCCCCCCCCCCCCN(CCCOC(=O)CCCCCCCCC)CCC1CCCN(C(=O)CN(CCCCCCCCC)CCN(CCCCCCCCC)CCCCCCCCC)C1 (centres unmarked) [Compound 122, 3-((2-(1-(N-(2-(Dinonylamino)ethyl)-N-nonylglycyl)piperidin-3-yl)ethyl)(tetradecyl)amino)propyl decanoate] | 1.35 |
| CCCCCCCCCCCCCCN(CCCCCC(=O)OCCCCCCC)CC(=O)N1CCN(C(=O)CN(CCCCCCCCC)CCN(CCCCCCCCC)CCCCCCCCC)CC1 [Compound 91, Heptyl 6-((2-(4-(N-(2-(dinonylamino)ethyl)-N-nonylglycyl)piperazin-1-yl)-2-oxoethyl)(tetradecyl)amino)hexanoate] | 0.85 |
| CCCCCCCCCCCCCCN(CCCCCC(=O)OCCCCCCC)CCC1CCN(C(=O)CN(CCCCCCCCC)CCN(CCCCCCCCC)CCCCCCCCC)CC1 [Compound 94, Heptyl 6-((2-(1-(N-(2-(dinonylamino)ethyl)-N-nonylglycyl)piperidin-4-yl)ethyl)(tetradecyl)amino)hexanoate] | 0.63 |
| CCCCCCCCCCCCCCN(CCCCCCCC(=O)OCCCCC)CC(=O)N1CCN(C(=O)CN(CCCCCCCCC)CCN(CCCCCCCCC)CCCCCCCCC)CC1 [Compound 90, Pentyl 8-((2-(4-(N-(2-(dinonylamino)ethyl)-N-nonylglycyl)piperazin-1-yl)-2-oxoethyl)(tetradecyl)amino)octanoate] | 0.55 |
| CCCCCCCCCN(CCCCCCCCC)CCC(=O)N1CCN(C(=O)CCN(CCCCCCCCC)CCN(CCCCCCCCC)CCCCCCCCC)CC1 [Compound 52, 3-(Dinonylamino)-1-(4-(3-((2-(dinonylamino)ethyl)(nonyl)amino)propanoyl)piperazin-1-yl)propan-1-one] | 2.25 |
| CCCCCCCCCCCCCCN(CCCOC(=O)CCCCCCCCC)CCC1CCN(C(=O)CN(CCCCCCCCC)CCN(CCCCCCCCC)CCCCCCCCC)C1 (centres unmarked) [Compound 126, 3-((2-(1-(N-(2-(Dinonylamino)ethyl)-N-nonylglycyl)pyrrolidin-3-yl)ethyl)(tetradecyl)amino)propyl decanoate] | 1.48 |
| CCCCCCCCCN(CCCCCCCCC)CCC1CCN(C(=O)CN(CCCCCCCCC)CCN(CCCCCCCCC)CCCCCCCCC)CC1 [Compound 49, 2-((2-(Dinonylamino)ethyl)(nonyl)amino)-1-(4-(2-(dinonylamino)ethyl)piperidin-1-yl)ethan-1-one] | 4.59 |
| CCCCCCCCCN(CCCCCCCCC)CCN(CCCCCCCCC)CC(=O)N1CCC(CCOC(=O)CN(CCCCCCCCC)CCCCCCCCC)CC1 [Compound 114, 2-(1-(N-(2-(Dinonylamino)ethyl)-N-nonylglycyl)piperidin-4-yl)ethyl dinonylglycinate] | 2.09 |
| CCCCCCCCCCCCCCN(CCCOC(=O)CCCCCCCCC)CC(=O)N1CCN(C(=O)CN(CCCCCCCCC)CCN(CCCCCCCCC)CCCCCCCCC)CC1 [Compound 89, 3-((2-(4-(N-(2-(Dinonylamino)ethyl)-N-nonylglycyl)piperazin-1-yl)-2-oxoethyl)(tetradecyl)amino)propyl decanoate] | 3.62 |
| CCCCCCCCCN(CCCCCCCCC)CCN(CCCCCCCCC)CC(=O)N1CCC(COC(=O)CN(CCCCCCCCC)CCCCCCCCC)C1 (centres unmarked) [Compound 102, (1-(N-(2-(Dinonylamino)ethyl)-N-nonylglycyl)pyrrolidin-3-yl)methyl dinonylglycinate] | 0.17 |
| CC/C=C\COC(=O)CCCN(CCCCCCCCC)CC(=O)N1CCN(C(=O)CN(CCCCCCCCC)CCN(CCCCCCCCC)CCCCCCCCC)CC1 [Compound 107, (Z)-Pent-2-en-1-yl 4-((2-(4-(N-(2-(dinonylamino)ethyl)-N-nonylglycyl)piperazin-1-yl)-2-oxoethyl)(nonyl)amino)butanoate] | 4.66 |
| CCCCCCCCCN(CCCCCCCCC)CCN(CCCCCCCCC)CC(=O)N(C)CCN(C)C(=O)CN(CCCCCCCCC)CCCCCCCCC [Compound 151, 2-(Dinonylamino)-N-(2-(2-((2-(dinonylamino)ethyl)(nonyl)amino)-N-methylacetamido)ethyl)-N-methylacetamide] | 3.64 |
